# Literature values, collected in US11034725B2, “Compositions and methods for treating cardiovascular disease” (Genentech, Inc., priority 2016, dated 2021).
# B1: Ab33: anti-PCSK9 antibody, YW508.20.33b (Ab33), disclosed in U.S. Pat. No. 9,266,961 (antibody)
# heavy: EVQLVESGGGLVQPGGSLRLSCAASGFTFSSTAIHWVRQAPGKGLEWVARISPANGNTNYADSVKGRFTISADTSKNTAYLQMNSLRAEDTAVYYCARWIGSRELYIMDYWGQGTLVTVSS[human IgG1 constant region not shown]
# light: DIQMTQSPSSLSASVGDRVTITCRASQDVSTAVAWYQQKPGKAPKLLIYSASFLYSGVPSRFSGSGSGTDFTLTISSLQPEDFATYYCQQAYPALHTFGQGTKVEIKRTVAAPSVFIFPPSDEQLKSGTASVVCLLNNFYPREAKVQWKVDNALQSGNSQESVTEQDSKDSTYSLSSTLTLSKADYEKHKVYACEVTHQGLSSPVTKSFNRGEC
# Target: PCSK9 (Homo sapiens, UniProt Q8NBP7)
# Sequence (Q8NBP7 153-692): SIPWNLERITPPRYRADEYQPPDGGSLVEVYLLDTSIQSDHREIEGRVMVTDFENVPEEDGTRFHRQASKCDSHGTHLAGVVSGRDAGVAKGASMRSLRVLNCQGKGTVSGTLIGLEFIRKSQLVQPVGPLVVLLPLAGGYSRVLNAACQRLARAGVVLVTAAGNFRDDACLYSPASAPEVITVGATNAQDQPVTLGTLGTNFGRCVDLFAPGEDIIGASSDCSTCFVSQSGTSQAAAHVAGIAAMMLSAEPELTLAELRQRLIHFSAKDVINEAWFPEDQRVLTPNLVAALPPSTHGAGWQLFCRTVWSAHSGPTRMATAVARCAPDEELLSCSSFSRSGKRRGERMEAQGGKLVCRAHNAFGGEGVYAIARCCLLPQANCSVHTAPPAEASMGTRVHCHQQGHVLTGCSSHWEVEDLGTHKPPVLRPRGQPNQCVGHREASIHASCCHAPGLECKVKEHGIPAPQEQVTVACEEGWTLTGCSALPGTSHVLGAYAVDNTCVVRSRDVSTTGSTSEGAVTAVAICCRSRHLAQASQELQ
# Details: U.S. Pat. No. 9,266,961; read-out: antibody33/PCSK9 dissociation constant (Kd); cited from earlier work
molecule,measurement,value
B1,Kd,0.4 nM
